Measured values taken from PubChem BioAssay (NCI).
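Assay format: 96-well plates, 48-hour exposure. GI50 marks 50% less growth. TGI: concentration producing complete growth inhibition.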

These compounds were tested on NCI-H322M lung (assay: DTP human tumour cell line panel, 48 h).

Row | Compound | GI50 [µM] | TGI [µM]
1 | O=C(O)c1ccc(-n2c(=O)n(-c3cccc(C(F)(F)F)c3)c(=O)c3cc(-c4ccc(F)cc4F)ccc32)cc1 | 2.96 | 17.6
2 | CN1CCN(c2ccc(Nc3nc(NCCCNS(=O)(=O)c4ccc(Cl)cc4)c4sccc4n3)cc2)CC1 | 10.3 | 22
3 | COc1cc(OC)c(S(N)(=O)=O)cc1C(=O)/C=C/c1ccc(Cl)cc1 | 2.31 | 10.8
4 | COc1cc2c3c(n(CCCN4CCC[C@H]4C(N)=O)c(=O)c2cc1OC)-c1cc2c(cc1C3=O)OCO2 | 0.329 | > 100
